# Data published in the RNAGym collection of RNA variant scans (doi:10.1073/pnas.2313332121).
# Variants at the floor of the assay are shown more often than the library holds them.
# B1: TPR 5TU (parent)
# chain: GGAUCUUCUCGAUCUAACAAAAAAGACAAAUCUGCCACAAAGCUUGAGAGCAUCUUCGGAUGCAGAGGCGGCAGCCUUCGGUGGCGCGAUAGCGCCAACGUUCUCAACUAUGACACGCAAAACGCGUGCUCCGUUGAAUGGAGUUUAUCAUG
# Variants of: B1
# Assay: polymerase ribozyme fitness, log enrichment relative to wild type (log ratio); higher = more active; in vitro selection for triplet polymerase activity
# Summary of the method: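 PCR was used to build mutant libraries for each subunit of a heterodimeric triplet polymerase ribozyme, which were then transcribed. A single in vitro selection round, in triplicate, used a frozen incubation at −7 °C and recovered extended constructs by gel excision, streptavidin beads and RT-PCR. Fitness is the logarithm of genotype enrichment relative to wild-type enrichment, averaged over replicates with inverse-variance weights. The logarithm is base 2, and after Illumina sequencing only genotypes with ≥10 input reads and ≥1 read per output were kept.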
row,Variant,polymerase ribozyme fitness (log ratio)
1,GGAUCUUCUCGAUCUAACAAAAAAGACAAAUCUGCCACAAAUCUUGAGAGCAUCGUCGGAUGCAGAGGCGACAGCCUUCGGUGGCGCGAUAGCGCGAACGUUCUCAACUAUGACACGCAAAACGCGUGCUCCGUUGAAUGGAGGUUAUCAUG,≤ -4.2
2,GGAUCUUCUCGAUCUAACAAAAAAGACAAAUCUGCCACAAAUCUUGAGAGCAUGUUCGGAUGCAGAGGCGGCAGCCUUCGGUGGCUCGAUAGCGCCAACGUUCUCAACUAUGACACGCAAAACUCGUGCUCCGUUGAAUGGAGUUUAUCAUG,≤ -4.2
3,GGAUCUUCUCGAUCUAACAAAAAAGACAAAUCUGCCACAAAUCUUGAGAGCAUCUUCGGAUGCCGAGGCGGCAGCCUUCGGUGGCGCUAUAGCGCCAACGUUCUCAACUAUGACACGCAAAACGCGUACUCCGUUGAAUGGAGUUUAUCAUG,≤ -4.2
4,GGAUCUUCUCGAUCUAACAAAAAAGACAAAUCUGCCACAAACCUUGAGAGCAUCGUCGGAUGCAGAGGCGGCAGGCUGCGGUGGCGCGAUAGCGCCAACGUUCUCAACUAUGACACGCAAAACGCGUGCUCCGUUGAAUGGAGUUUAUCAUG,≤ -4.2
5,GGAUCUUCUCGAUCUAACAAAAAAGACAAAUCUGCCACAAAUCUUGAGAGCAUCUUCGGUUGCAGAGGCGGCAGCCUUCGUGGGCGCGAUAGCGCUAAGCUUCUCAACUAUGACACGCAAAACGCGUGCUCCGGUGAAUGGAGUUUAUCAUG,≤ -4.2
6,GGAUCUUCUCGAUCUAACAAAAAAGACAAAUCUGCCACAAAUCUUGACAGCAUCUUCGGAUGCAGAGGCGUCAGCCUACGGUGGCGUGAUAGCGCGAGCGUUCUCAACUAUGACACGCAAAACGCGUGCUCCGUUGAAUGGAGUUUAUCAUG,≤ -4.2
7,GGAUCUUCUCGAUCUAACAAAAAAGACAAAUCUGCCACAAAUCUUGAGAGCAUCUUCGGAUGCAGAGGCGGCAGCCUUCGGUGUCGCGAUAGCGCCAACGUUCUCAACUAUGACACUGAAAACGCGUGCUCCGUUGAAUGGGGUUUAUCAUG,≤ -4.2
8,GGAUCUUCUCGAUCUAACAAAAAAGACAAAUCUGCCACAAAUCUUGAUAGCAUGUUCGGAUGCAGAGGCGGCAGCCUUCGGUGGCGUGAUAGCGCCAACGUUCUCAACUAUGACACGCAAAACGCGUGCUCCGUUGAAUGGAGUUUAUCAUG,≤ -4.2
9,GGAUCUUCUCGAUCUAACAAAAAAGACAAAUCUGCCACAAAUCUUGAGAGCAUCUUCGGAUUCAGCGGCGGCAGCCUUCGGUGGCGCGAUAGCGCCAACGUUCUCAACUAUGACACGCAAAACGCGUGCUCCGUUGAAUGGAGCUUAUCAUG,≤ -4.2
10,GGAUCUUCUCGAUCUAACAAAAAAGACAAAUCUGCCACAAACCUUGAGAGCAACGUCGGAUGCAGAGGCGGCAGCCCUCGGUGGCGCGAUUGCGCCAACGUGCUCAACUAUGACACGCAAAACGCGUGCUCCGUUGAAUGGAGUUUAUCAUG,≤ -4.2
11,GGAUCUUCUCGAUCUAACAAAAAAGACAAAUCUGCCACAAAUCUUGAGAGCAUCUUCGUAUGCAGAGGCGGCAGCCUUCGGUGAUGCGAUAGCGCCAACGUUGUCAACUAUGACACGCGAAACGCGUGCUCCGUUGAAUGGAGUUUAUCAUG,≤ -4.2
12,GGAUCUUCUCGAUCUAACAAAAAAGACAAAUCUGCCACAAACCUUGAGAGCAACGUCGGAUGCAGAGGCGGCAGCUUUCGGUGGCGCGAUAGAGCCAACGUUCUCAACUAUGACACGCAAAACGCGUGCUCCGUUGAAUGGAGUUUAUCAUG,≤ -4.2
13,GGAUCUUCUCGAUCUAACAAAAAAGACAAAUCUGCCACAAAUCUUGAGAGCAUCUUCGGAUGCAGAGGUGGCAGCCUUCGGUGGCGAGAUAGCGCCAACGUUCUCAACUAUGACACGCAAAUCGCGUGCUCCGUUGAAUGGAGUUUAUCAUG,≤ -4.2
14,GGAUCUUCUCGAUCUAACAAAAAAGACAAAUCUGCCACAAAUCAUGAGAGCAUAUUCGGAUGCAGAGGCGGCAGCCUUCGGUGGCGCUAUAGCGCCAACGUUCUCAACUAUGACACGCAAAACGCGUGCUCCGUUGAAUGGAGUUUAUCAUG,≤ -4.2
15,GGAUCUUCUCGAUCUAACAAAAAAGACAAAUCUGCCACAAAUCUAGAGAGCAUCUUCGGAUGCAGAGGCGGCAGCCUUCGGUGGCGCGAUAGCGUCAACGUUCUCAACUAUGACACGCAAAACGCGUGCUCCGUUGAAUGGAGUUUAUAAUG,≤ -4.2
16,GGAUCUUCUCGAUCUAACAAAAAAGACAAAUCUGCCACAAAUCUUGAGAGCAUCUUCGGAUGCAGAGGCGGCAGCCUUCGGUGGCGCGAUAGCGCCAACGUUCUCAACUAUGACACGCAAGACGCGUGCUCCGUUGAAUGGAGUUUAUCAUG,≤ -4.2
17,GGAUCUUCUCGAUCUAACAAAAAAGACAAAUCUGCCACAAAUCUUGAGAGCAUCUUCGGAUGCAGAGGCGGCAGCCUUCGGUGUCGCGAUAGCGCCAACGUUCUCAACUAUGACACGCAAAACGCGUGCUCCGCUGAAGGGAGUUUAUCAUG,≤ -4.2
18,GGAUCUUCUCGAUCUAACAAAAAAGACAAAUCUGCCACAAACCUUGAGAGCAACUUCGGAUGCAGAGGCGGCAGCCUUCGGUGGCGCGAUAACGCCAACGUUCUCAACUAUGACACGCAAAACGCGUGCUCCGAUGAAUGGAGUUUAUCAUG,≤ -4.2
19,GGAUCUUCUCGAUCUAACAAAAAAGACAAAUCUGCCACAAAUCUUGAGAGCAUCUUCGGAUGCAGAGGCGGCAGCCUUCCGUGGCGAGAUAGCGCCAACGUUCUCAACUAUGACAUGCAAAACGCGUGCUCCGUUGAAUGGAGUUUACCAUG,≤ -4.2
